According to patent US20200138970A1 (Bayer, published 2020):

T1: human B7H3 on cancer cell lines (human, UniProt Q5ZPR3 29-534)
T1 sequence (looked up): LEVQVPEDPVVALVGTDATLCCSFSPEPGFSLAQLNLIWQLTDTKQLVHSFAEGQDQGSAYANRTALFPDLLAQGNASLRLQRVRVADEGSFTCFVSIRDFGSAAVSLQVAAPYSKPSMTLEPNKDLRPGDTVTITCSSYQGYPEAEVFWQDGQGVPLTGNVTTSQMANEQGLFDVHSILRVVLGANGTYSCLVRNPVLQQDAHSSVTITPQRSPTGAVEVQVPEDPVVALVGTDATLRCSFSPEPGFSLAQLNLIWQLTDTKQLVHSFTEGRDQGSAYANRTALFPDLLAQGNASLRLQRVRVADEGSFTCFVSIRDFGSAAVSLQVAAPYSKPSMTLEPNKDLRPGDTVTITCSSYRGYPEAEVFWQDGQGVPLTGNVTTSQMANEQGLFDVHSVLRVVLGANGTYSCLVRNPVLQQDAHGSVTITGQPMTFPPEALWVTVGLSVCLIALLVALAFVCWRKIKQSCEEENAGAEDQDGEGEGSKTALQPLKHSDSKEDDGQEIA


Each binder was assayed against T1, human B7H3 on cancer cell lines (assay: cell-based or functional assay).

Binder | U251 CTG (IC50 M) [nM]
ADC Example 257-8382 (antibody, human IgG1, lambda, drug-linker from Intermediate F257 on Cys, sites not stated) heavy: EVQLLESGGGLVQPGGSLRLSCAASGFTFSSYAMSWVRQAPGKGLEWVSSISGSGGSTLYADSVKGRFTISRDNSKNTLYLQMNSLRAEDTAVYYCAKLTGTSFDYWGQGTLVTVSS[left out - human IgG1 constant region] light: QSVLTQPPSASGTPGQRVTISCSGSSSNIGSNPVNWYQQLPGTAPKLLIYSNNQRPSGVPDRFSGSKSGTSASLAITGLQSEDEADYYCQSFDSSLKKVFGGGTKLTVLGQPKAAPSVTLFPPSSEELQANKATLVCLISDFYPGAVTVAWKADSSPVKAGVETTTPSKQSNNKYAASSYLSLTPEQWKSHRSYSCQVTHEGSTVEKTVAPTECS | 0.0856
ADC Example 267-6497 (antibody, human IgG1, lambda, drug-linker from Intermediate F267 on Cys, sites not stated) heavy: EVQLLESGGGLVQPGGSLRLSCAASGFTFRSYAMSWVRQAPGKGLEWVSSVSGSGGSALYADSVKGRFTISRDNSKNTLYLQMNSLRAEDTAVYYCTRLTGTSFDYWGQGTLVTVSS[left out - human IgG1 constant region] light: QSVLTQPPSASGTPGQRVTISCSGSSSNIGSNPVNWYQQLPGTAPKLLIYGNSNRPSGVPDRFSGSKSGTSASLAISGLRSEDEADYYCQSFDSSLKKVFGGGTKLTVLGQPKAAPSVTLFPPSSEELQANKATLVCLISDFYPGAVTVAWKADSSPVKAGVETTTPSKQSNNKYAASSYLSLTPEQWKSHRSYSCQVTHEGSTVEKTVAPTECS | 28.4
ADC Example 271-6497 (antibody, human IgG1, lambda, drug-linker from Intermediate F271 on Cys, sites not stated) heavy: EVQLLESGGGLVQPGGSLRLSCAASGFTFRSYAMSWVRQAPGKGLEWVSSVSGSGGSALYADSVKGRFTISRDNSKNTLYLQMNSLRAEDTAVYYCTRLTGTSFDYWGQGTLVTVSS[left out - human IgG1 constant region] light: QSVLTQPPSASGTPGQRVTISCSGSSSNIGSNPVNWYQQLPGTAPKLLIYGNSNRPSGVPDRFSGSKSGTSASLAISGLRSEDEADYYCQSFDSSLKKVFGGGTKLTVLGQPKAAPSVTLFPPSSEELQANKATLVCLISDFYPGAVTVAWKADSSPVKAGVETTTPSKQSNNKYAASSYLSLTPEQWKSHRSYSCQVTHEGSTVEKTVAPTECS | 28.7
ADC Example 263-6497 (antibody, human IgG1, lambda, drug-linker from Intermediate F263 on Cys, sites not stated) heavy: EVQLLESGGGLVQPGGSLRLSCAASGFTFRSYAMSWVRQAPGKGLEWVSSVSGSGGSALYADSVKGRFTISRDNSKNTLYLQMNSLRAEDTAVYYCTRLTGTSFDYWGQGTLVTVSS[left out - human IgG1 constant region] light: QSVLTQPPSASGTPGQRVTISCSGSSSNIGSNPVNWYQQLPGTAPKLLIYGNSNRPSGVPDRFSGSKSGTSASLAISGLRSEDEADYYCQSFDSSLKKVFGGGTKLTVLGQPKAAPSVTLFPPSSEELQANKATLVCLISDFYPGAVTVAWKADSSPVKAGVETTTPSKQSNNKYAASSYLSLTPEQWKSHRSYSCQVTHEGSTVEKTVAPTECS | 4.37
ADC Example 208-7611 (antibody, human IgG1, lambda, drug-linker from Intermediate F104 on Cys, sites not stated) heavy: EVQLLESGGGLVQPGGSLRLSCAASGFTFRSYAMSWVRQAPGKGLEWVSSVSGSGGSALYADSVKGRFTISRDNSKNTLYLQMNSLRAEDTAVYYCTRLTGTSFDYWGQGTLVTVSS[left out - human IgG1 constant region with changes] light: QSVLTQPPSASGTPGQRVTISCSGSSSNIGSNPVNWYQQLPGTAPKLLIYGNSNRPSGVPDRFSGSKSGTSASLAISGLRSEDEADYYCQSFDSSLKKVFGGGTKLTVLGQPKAAPSVTLFPPSSEELQANKATLVCLISDFYPGAVTVAWKADSSPVKAGVETTTPSKQSNNKYAASSYLSLTPEQWKSHRSYSCQVTHEGSTVEKTVAPTECS | 0.249
ADC Example 208-8322 (antibody, human IgG1, lambda, drug-linker from Intermediate F104 on Cys, sites not stated) heavy: EVQLLESGGGLVQPGGSLRLSCAASGFTFSSYGMHWVRQAPGKGLEWVSAISGSGGSTYYADSVKGRFTISRDNSKNTLYLQMNSLRAEDTAVYYCARGYYYYGMDVWGQGTLVTVSS[left out - human IgG1 constant region] light: QSVLTQPPSASGTPGQRVTISCSGGSSNIGSNPVNWYQQLPGTAPKLLIYGNSKRPSGVPDRFSGSKSGTSASLAISGLRSEDEADYYCQSYDSSLSGWVFGGGTKLTVLGQPKAAPSVTLFPPSSEELQANKATLVCLISDFYPGAVTVAWKADSSPVKAGVETTTPSKQSNNKYAASSYLSLTPEQWKSHRSYSCQVTHEGSTVEKTVAPTECS | 0.0675
